Structures can show the parent of a compound that is named as a salt.
Tests used:
[1] = biological target: T1, CYP3A4 (Homo sapiens, UniProt P08684); test: Vivid CYP450 fluorescence-based inhibition assay, CYP3A4
[2] = biological target: T2, CYP1A2 (Homo sapiens, UniProt P05177); test: Vivid CYP450 fluorescence-based inhibition assay, CYP1A2
T2 sequence (P05177 2-516 limits assumed): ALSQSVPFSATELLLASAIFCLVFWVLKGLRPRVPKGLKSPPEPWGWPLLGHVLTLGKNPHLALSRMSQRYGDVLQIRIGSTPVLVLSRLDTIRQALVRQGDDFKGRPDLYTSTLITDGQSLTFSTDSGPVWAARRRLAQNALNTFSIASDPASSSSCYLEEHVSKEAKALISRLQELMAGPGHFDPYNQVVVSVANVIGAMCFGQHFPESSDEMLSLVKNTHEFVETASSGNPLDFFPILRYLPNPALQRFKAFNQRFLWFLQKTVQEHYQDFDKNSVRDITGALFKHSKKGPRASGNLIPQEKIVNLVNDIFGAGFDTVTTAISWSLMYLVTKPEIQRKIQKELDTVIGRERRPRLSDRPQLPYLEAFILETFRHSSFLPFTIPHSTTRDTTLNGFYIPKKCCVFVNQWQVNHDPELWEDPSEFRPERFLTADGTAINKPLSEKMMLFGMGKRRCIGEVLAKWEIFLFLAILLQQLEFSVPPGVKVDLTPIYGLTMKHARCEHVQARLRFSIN

[3] = biological target: T3, CYP2A6 (Homo sapiens, UniProt P11509); test: Vivid CYP450 fluorescence-based inhibition assay, CYP2A6; conditions: IC50 without NADPH, reversible inhibition, no NADPH in pre-incubation; substrate CC
T3 sequence (P11509 1-494): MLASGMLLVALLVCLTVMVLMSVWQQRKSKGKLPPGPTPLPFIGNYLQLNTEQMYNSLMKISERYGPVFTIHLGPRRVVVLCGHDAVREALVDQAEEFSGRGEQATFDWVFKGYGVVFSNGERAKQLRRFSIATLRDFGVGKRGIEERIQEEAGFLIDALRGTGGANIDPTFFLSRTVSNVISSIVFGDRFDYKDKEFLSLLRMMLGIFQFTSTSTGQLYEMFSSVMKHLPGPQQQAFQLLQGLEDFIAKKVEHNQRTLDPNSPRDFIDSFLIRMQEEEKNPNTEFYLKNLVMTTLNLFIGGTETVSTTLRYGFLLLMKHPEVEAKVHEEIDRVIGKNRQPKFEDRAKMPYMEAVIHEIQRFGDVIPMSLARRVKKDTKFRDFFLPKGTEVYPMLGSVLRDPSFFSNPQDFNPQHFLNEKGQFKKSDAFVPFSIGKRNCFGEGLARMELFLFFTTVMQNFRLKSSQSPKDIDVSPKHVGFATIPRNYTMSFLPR

[4] = biological target: CYP2D6 (Homo sapiens, UniProt P10635); conditions: earlier study of the authors; cited from earlier work
[5] = biological target: T1, CYP3A4; conditions: earlier study of the authors; cited from earlier work

UniProt P10635, sequence (P10635 whole entry): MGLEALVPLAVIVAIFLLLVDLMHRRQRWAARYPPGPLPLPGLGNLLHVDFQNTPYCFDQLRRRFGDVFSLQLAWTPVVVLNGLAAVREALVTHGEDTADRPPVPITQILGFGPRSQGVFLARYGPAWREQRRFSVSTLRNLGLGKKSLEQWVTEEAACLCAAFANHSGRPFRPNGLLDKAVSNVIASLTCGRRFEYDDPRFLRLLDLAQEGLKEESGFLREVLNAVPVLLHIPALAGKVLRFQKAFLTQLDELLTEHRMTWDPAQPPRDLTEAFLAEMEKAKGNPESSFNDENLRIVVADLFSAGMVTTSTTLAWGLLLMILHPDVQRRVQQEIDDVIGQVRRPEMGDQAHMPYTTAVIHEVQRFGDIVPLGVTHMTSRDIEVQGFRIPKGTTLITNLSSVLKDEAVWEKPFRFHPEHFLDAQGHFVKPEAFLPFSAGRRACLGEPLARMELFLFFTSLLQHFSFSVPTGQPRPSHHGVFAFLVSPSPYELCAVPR

SMILES	IC50 [1] [µM]	IC50 ([2]; IC50 with NADPH, 30 minutes pre-incubation with NADPH (time-dependent inhibition)) [µM]	IC50 ([2]; IC50 without NADPH, reversible inhibition, no NADPH in pre-incubation, substrate EOMCC) [µM]	IC50 [3] [µM]	inhibition of CYP2D6 in vitro, in words [4]	inhibition of CYP3A4 in vitro, in words [5]
C[C@H](N)[C@@H](O)c1ccccc1 [Cathine, (1 S, 2 S)-2-amino-1-phenylpropan-1-ol.hydrochloride]	90	255	285	80	–	–
C[C@H](N)C(=O)c1ccccc1 [cathinone]	–	–	–	–	negligible inhibition	negligible inhibition

— paper PMC9411691, “Protein-Ligand Identification and In Vitro Inhibitory Effects of Cathine on 11 Major Human Drug Metabolizing Cytochrome P450s” (International Journal of Toxicology, 2022)
